Assay results taken from PubChem BioAssay AID588855 (National Center for Advancing Translational Sciences (NCATS), 2011).
Values joined by “and” are separate entries in the source; they are usually repeats but may differ in a detail not shown here. Equal values may be shown once. Hit rate of the full screen: of about 410,000 compounds, about 5,000 (1.2%) were called active. Inconclusive results, whose numbers are uncertain, are shown with a selection of clear calls. The call rests on the fitted dose curve; in most records, active means well fitted inhibition curve with a large enough effect; inconclusive means small, poorly fitted or top-dose-only effect; inactive means no such curve, though single readings can be large or run the other way. Where the call is inconclusive, the potency comes from a doubtful curve fit.

Assay: qHTS for Inhibitors of TGF-b; further: nearly all actives have a fitted effect of over 65% in size
Details: HepG2 CAGA-GFP TGF-b/SMAD3 reporter, GFP fluorescence, 18 h, TGF-beta stimulated, 500 pg/mL final; series mostly up to 46.1 µM
Outline: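 Per well, imaged GFP fluorescence of HEPG2 CAGA-GFP cells gives the signal; cells get compound, then TGF-beta (500 pg/mL final), 18 h at 37 degrees C; %Activity versus -TGF-beta and +DMSO controls.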
Potency means the concentration at half of the fitted maximal effect; tags describe the fitted curve by direction and shape.

SMILES | Potency
O=C(CSc1nc(=O)n(Cc2ccncc2)c2c1CCC2)Nc1cccc(F)c1 | inactive
Cc1ccc(NC(=O)C2CCN(S(=O)(=O)c3ccc4c(c3)NC(=O)C(C)S4)CC2)cc1Cl (stereo unspecified) | active: 2.24 µM
COc1cc(OC)c2c(c1)OC(c1ccc(OC)c(OC)c1)C(O)C2=O (stereo unspecified) | inconclusive: 17.8 µM [inhibitor, single point]
C[C@@H](C(=O)NCCc1ccc(F)cc1)N1C(=O)N2CCc3c([nH]c4ccccc34)[C@@]2(C)C1=O | inconclusive: 8.91 µM [inhibitor, partial curve, poor fit]
COc1cc(C2CC(=O)c3c([nH]c(C(=O)OC4CCCC4)c3C)C2)cc(OC)c1OC (stereo unspecified) | inconclusive: 1.12 µM [inhibitor, full curve, poor fit]
CCOC(=O)N1CCC(NCCNC(=O)c2ccccc2)CC1 | inactive
Cc1ccc(-c2nc3ccc(Br)cn3c2Cc2cccc(F)c2)cc1 | active: 11.2 µM
CCc1nc2ccc(C(=O)N3CCN(c4cccc(Cl)c4)CC3)cc2nc1CC | inconclusive: 17.8 µM [inhibitor, partial curve, poor fit]
O=C(c1cc(Cl)ccc1Cl)N1CCc2ccccc21 | inactive
CCCCNC(=O)C1(C)CCCCN1Cc1ccc2ccccc2c1 (stereo unspecified) | inconclusive: 35.5 µM [inhibitor, single point]
COCCn1c(SCC(=O)Nc2cc(C)on2)nc2cc(Cl)ccc2c1=O | inconclusive: 2.82 µM [inhibitor, full curve]
N#CC1(Nc2ccc(Br)cc2)CCCC1 | inactive
CCCn1c2ccccc2c2cnn(CC(=O)Nc3cc(OC)c(OC)c(OC)c3)c(=O)c21 | inconclusive: 3.98 µM [inhibitor, single point]
COc1ccc2[nH]c(-c3cccc(F)c3)cc(=O)c2c1 | inconclusive: 7.94 µM [inhibitor, partial curve, poor fit]
COc1ccc(-c2cc(-c3ccccc3)nc(NN)n2)cc1OC | inactive
COCCNS(=O)(=O)c1cc(C(=O)O)ccc1OC | inconclusive: 6.31 µM [inhibitor, single point]
CCN1c2ccccc2-c2nc3ccccc3n2C1c1ccncc1 (stereo unspecified) | inactive
COc1ccc(Cc2nc(-c3ccc(-n4cccc4)cc3)no2)cc1OC | inconclusive: 35.5 µM [inhibitor, single point]
CCCc1cc(N2CCCC2)n2nc(C)c(-c3ccccc3)c2n1 | inactive
CCn1c(=NC(=O)c2ccco2)sc2cccc(F)c21 | inactive
CCc1cccc(NC(=O)C(Cc2ccccc2)NS(=O)(=O)c2cccs2)c1 (stereo unspecified) | inconclusive: 17.8 µM [inhibitor, single point]
CCCN1C(=O)SC(CC(=O)Nc2ccccc2C)C1=O (stereo unspecified) | inconclusive: 5.01 µM [inhibitor, full curve, poor fit]
NC(=O)CC(NC(=O)Cc1ccc(Br)cc1)c1ccc(NC2CC3CCC2C3)c([N+](=O)[O-])c1 (stereo unspecified) | inconclusive: 35.5 µM [inhibitor, single point]
O=C(COc1ccccc1Cl)N1N=C(c2cccs2)CC1c1ccco1 (stereo unspecified) | inconclusive: 15.8 µM [inhibitor, single point]

SMILES | Potency
NS(=O)(=O)c1ccc(CCNCC(=O)N2CCC(Cc3ccccc3)CC2)cc1 | inconclusive: 28.2 µM [inhibitor, single point]
CC(=O)c1ccc(Nc2cc(C)nc3nc(Cc4ccccc4)nn23)cc1 | inconclusive: 0.316 µM [inhibitor, full curve, poor fit]
Cc1cc(C)c2cc(C#N)c(N3CCCN(C(=S)NCCCN(C)C)CC3)nc2c1 | inconclusive: 10 µM [inhibitor, partial curve, poor fit]
O=[N+]([O-])c1ccc(N=Nc2ncc[nH]2)cc1 | inactive
COc1ccc(NC(=O)CN2CCC(C(=O)c3ccc(F)cc3)CC2)c(OC)c1 | inactive
COc1cc(C2NC(=O)NC(C)=C2C(=O)OC2CCCC(C)C2)ccc1O (stereo unspecified) | inconclusive: 3.98 µM [inhibitor, single point]
Cc1ccc(C)c(N(C(=O)CCC(=O)Nc2cc(C)on2)C(C(=O)NC2CCCC2)c2ccco2)c1 (stereo unspecified) | inactive
CC1CC(C)(C)Nc2ccc(OC(=O)c3ccco3)cc21 (stereo unspecified) | inconclusive: 35.5 µM [inhibitor, single point]
CC(c1ccccn1)N(C)C(=O)c1ccc2nc(Cc3cccc(Cl)c3)oc2c1 (stereo unspecified) | inconclusive: 17.8 µM [inhibitor, single point]
CCc1ccc(C2=NN(CCC(=O)NCCc3ccccc3)C(=O)CC2)cc1 | inactive
Cc1ccc(CNC(=O)CN(C)S(=O)(=O)c2cccs2)cc1 | inactive
Oc1cccc(C(O)CNCc2ccc(-c3ccccc3)cc2)c1 (stereo unspecified) | inconclusive: 25.1 µM [inhibitor, single point]
CCOC(=O)C1=C(N)Oc2cc(O)ccc2C1c1ccc(C)cc1 (stereo unspecified) | inconclusive: 14.1 µM [inhibitor, single point]
O=C(c1cccc(S(=O)(=O)N2CCN(c3ccccc3)CC2)c1)N1CCCC(C(F)(F)F)C1 (stereo unspecified) | inconclusive: 6.31 µM [inhibitor, single point]
Cc1ccc(C)c(N2CCN(CCCNC(=O)c3ccc4nc(N5CCC(C)CC5)sc4c3)CC2)c1 | inconclusive: 0.447 µM [inhibitor, partial curve, poor fit]
O=C(N/N=C/c1ccccc1F)c1cccc2ccccc12 | inactive
O=C(NC(=O)c1ccccc1F)Nc1nc(-c2cccs2)cc(C(F)(F)F)n1 | inactive
C/C(=N\OCC(=O)OCC(=O)NCc1ccccc1)c1ccc2c(c1)OCO2 | inconclusive: 35.5 µM [inhibitor, single point]
COc1cc(/C=C/c2cc[n+](C)cc2)ccc1OCC(=O)Nc1ccc(Cl)c(Cl)c1 | inconclusive: 35.5 µM [inhibitor, single point]
CCOc1cc(C=O)cc(Br)c1OCC(=O)NCCc1ccccc1 | inconclusive: 35.5 µM [inhibitor, single point]
CCOC(=O)C1=C(C)NC(=O)NC1/C(C)=C/c1ccccc1 (stereo unspecified) | inactive
Cc1cc(Cl)ccc1NC(=S)NCc1ccccc1 | inactive
CC1=[N+](C)c2ccc3ccccc3c2C1(C)C | active: 6.31 µM
N#C/C(=C/c1ccc(N2CCCCCC2)o1)c1ccc(Cl)cc1 | inactive

SMILES | Potency
Cc1ccc(-c2nc(NC(=O)CSc3nnc4scc(-c5ccccc5)n34)ns2)cc1 | inactive
CCN(CC)C(=O)CSc1nc(O)cc(=O)n1-c1ccccc1OC | inactive
C[C@H](NC(=O)OC(C)(C)C)C(=O)N/N=C/C1=Cc2ccccc2OC1 | inconclusive: 35.5 µM [inhibitor, single point]
NNC(=O)CNC(c1ccccc1)c1cc(Br)ccc1NC(=O)c1ccccc1Br (stereo unspecified) | inactive
CN(CCCC(=O)Nc1ccc(Br)cc1F)S(=O)(=O)c1ccccc1 | inconclusive: 20 µM [inhibitor, single point]
COC(=O)c1ccc(NC(=O)c2ccc3nc(C)sc3c2)cc1 | inactive
COc1ccc(CCN(C)C(=O)c2cc(S(=O)(=O)N3CCCCCC3)ccc2OC)cc1OC | inactive
Cc1ccc(S[C@@H](CCN2CC[C@H](C(C)(C)C)CCC2=O)c2ccccc2)cc1 | inconclusive: 25.1 µM [inhibitor, single point] and inconclusive: 14.1 µM [inhibitor, single point]
C=CCOc1ccc(C2=NO[C@@H]3[C@@H]4C[C@@H]([C@H]5C(=O)N(C)C(=O)[C@@H]45)[C@H]23)cc1 | inconclusive: 20 µM [inhibitor, partial curve, poor fit]
O=C1Cc2cc(S(=O)(=O)Nc3ccc(OC(F)(F)F)cc3)cc3c2N1CCC3 | inconclusive: 0.794 µM [inhibitor, full curve, poor fit]
O=C1C(Cl)=C(Nc2ccccc2O)C(=O)N1CCc1ccccc1 | inconclusive: 22.4 µM [inhibitor, partial curve, poor fit]
Cn1c(=S)c2[nH]c(SCCC(C)(C)C)nc2n(C)c1=O | inconclusive: 3.16 µM [inhibitor, partial curve, poor fit]
O=C(c1cccc(S(=O)(=O)N2CCN(c3ccc(F)cc3)CC2)c1)N1CCCCCCC1 | inconclusive: 17.8 µM [inhibitor, single point]
O=C(C1CC1)N1CCc2cc(Br)cc(S(=O)(=O)NCCCN3CCCC3)c21 | inactive
COc1cccc(CNc2cc(CSc3ccc(Cl)cc3)nc(C)n2)c1 | inconclusive: 35.5 µM [inhibitor, single point]
CCC(Nc1ccc(-c2nc(-c3cccnc3)no2)cc1[N+](=O)[O-])c1ccccc1 (stereo unspecified) | inconclusive: 3.55 µM [inhibitor, partial curve, poor fit]
COc1ccc2[nH]cc(CCNC(=O)Nc3cc(C)cc(C)c3)c2c1 | inactive
COc1cc2c(cc1OC)C(C)N(C(=O)c1cc(C)on1)CC2 (stereo unspecified) | active: 11.2 µM
COc1ccccc1Nc1nc(-c2ccccc2)c(CC(=O)O)s1 | inconclusive: 17.8 µM [inhibitor, single point]
O=S(=O)(c1ccc(SCCOc2ccc(Cl)cc2)nc1)N1CCCC1 | inactive
Cc1c(/C=N/Nc2nc3ccccc3[nH]2)c2ccccc2n1C | inconclusive: 12.6 µM [inhibitor, partial curve, poor fit]
COc1cccc(NC(=O)Cn2nnc(-c3ccccc3N)n2)c1 | inactive
COc1ccc(NC(=O)NNC(=O)c2ccccc2-n2cccc2)cc1OC | inactive
